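Cultured in 96-well plates, cells were exposed to test compound for 48 hours across five concentrations. GI50: concentration for 50% inhibition of growth. TGI: concentration producing complete growth inhibition.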
Tested on: NCI-H322M lung
Assay: DTP human tumour cell line panel, 48 h

Row | SMILES | GI50 | TGI
1 | O=C(Cc1ccc2c(c1)CN(C1CCC(=O)NC1=O)C2=O)NCCc1ccccc1 (stereo not given) | 0.047 µM | 5.77 µM
2 | O=C(CNc1nc(-c2ccccc2)cs1)Nc1ccc(Cl)cc1 | 1.28 µM | 2.54 µM
3 | Cn1cc(NC(=O)c2cc(NC(=O)c3ccc(C#Cc4ccccc4)cc3)cn2C)cc1C(=O)NCCCN1CCOCC1 | > 32.5 µM | > 32.5 µM
4 | CCN1C(=O)N(CC)C2NNC(Sc3c(C(=O)O)c4ccccc4n(CCC(C)C)c3=O)=NC21 (stereo not given) | 6.03 µM | 30.1 µM
5 | Cc1ccccc1Nc1nnc(-c2c[nH]c3ccccc23)o1 | 6.12 µM | > 100 µM

From PubChem BioAssay (NCI)
